The whole screen tested about 5,400 compounds, of which about 190 (3.5%) showed an effect of 50% or more. The list shows a part of the results. Starred links: 1 amine or outer side, 2 acyl side, 3 side chain; linkers in the order of their positions; H or OH if unused. Non-standard residues stand in square brackets, D forms with d. Residues, ends and D or L forms follow the SMILES beside them. Groups on a side chain read outwards from the residue. *: point of attachment. Ethylenediamine = C(CN[*:2])N[*:1]; Hyp = O=C(O)[C@@H]1C[C@@H](O)CN1; Phg = N[C@H](C(=O)O)c1ccccc1; CO = O=C([*:1])[*:2]; Bn = c1ccc(C*)cc1

The experiment deals with Vero-E6. Put plainly: primary screen, phospholipidosis by LipidTOX staining; higher = more effect of the substance. To be noted: 10 µM. Summed up:
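Single-concentration screen at 10 μM, with DMSO 0.1 v/v % and amiodarone 10 μM as controls. Read-out is LipidTOX Red phospholipid staining, which tolerates aldehyde fixation, in Vero-E6 cells.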
For the molecule `CCOc1cc2ncc(C#N)c(Nc3ccc(F)c(Cl)c3)c2cc1NC(=O)/C=C/CN(C)C`, the result_ITMP is listed as 73.9%.

As for `CC(C)c1nc(N(C)S(C)(=O)=O)nc(-c2ccc(F)cc2)c1/C=C/[C@@H](O)C[C@@H](O)CC(=O)[O-]`, the result_ITMP was -8.19%.

Regarding `Cc1oc(=O)oc1COC(=O)C1=C([C@H]2CCCO2)S[C@@H]2[C@@H]([C@@H](C)O)C(=O)N12`, the result_ITMP was -2.76%.

Consider `CCCc1c(-c2ccc(O)cc2)nn(-c2ccc(O)cc2)c1-c1ccc(O)cc1`, for which the result_ITMP was -0.95%.

Take `C[C@]12CC[C@@H](O)C[C@@H]1CC[C@@H]1[C@@H]2CC[C@]2(C)C(c3ccccc3)=CC[C@@H]12`: the result_ITMP was -2.07%.

Consider `NC(=O)c1ccc2[nH]ccc2c1`, for which the result_ITMP is listed as -9.05%.

As for `Brc1ccc(NC2C3CC4CC(C3)CC2C4)cc1` (stereo not drawn), the result_ITMP was -2.12%.

On to `CN(N=O)C(=O)N[C@@H]1[C@@H](O)[C@H](O)[C@@H](CO)O[C@@H]1O`, for which the result_ITMP came out at 1.67%.

As for `CC(C)(C)Nc1nc(Nc2ccc(C(N)=O)cc2)cc(N)c1C#N`, the result_ITMP is listed as 0.58%.

Turning to `COc1ccc(C2=NC(c3ccc(Cl)cc3)C(c3ccc(Cl)cc3)N2C(=O)N2CCNC(=O)C2)c(OC(C)C)c1` (stereo not drawn), the result_ITMP stood at 20.5%.

In the case of `COc1ccc(-n2nc(C(F)(F)F)cc2-c2ccc(Cl)cc2)cc1`, the result_ITMP is on record as -1.15%.

On to `Nc1ccncc1`, for which the result_ITMP is -3.01%.

`CC(=O)OCC(=O)[C@@]1(O)[C@H](C)CC2C3CCC4=CC(=O)C=C[C@]4(C)[C@@]3(F)[C@@H](O)C[C@@]21C` (stereo partly drawn): the result_ITMP is given as -3.79%.

On to `NCCCC[C@@H]1NC(=O)[C@@H](Cc2c[nH]c3ccccc23)NC(=O)[C@H](c2ccccc2)NC(=O)[C@@H]2C[C@@H](OC(=O)NCCN)CN2C(=O)[C@H](Cc2ccccc2)NC(=O)[C@H](Cc2ccc(OCc3ccccc3)cc2)NC1=O` (cyclo([Hyp]([CO-Ethylenediamine])[Phg][dW]KY(Bn)F)), for which the result_ITMP turned out to be 8.97%.

As for `COc1ccc(/C=C/C(=O)Nc2ccccc2C(=O)O)cc1OC`, the result_ITMP is listed as -9.61%.

For `CCN(CC)CCNC(=O)c1c(C)[nH]c(/C=C2\C(=O)Nc3ccc(F)cc32)c1C`, the result_ITMP was 6.17%.

On to `COc1cc2c(cc1O)C(CCc1ccc(Cl)cc1)N(C)CC2` (stereo not drawn), for which the result_ITMP came out at 64%.

For the molecule `CC(=O)N[C@H]1[C@H]([C@H](O)[C@H](O)CO)OC(C(=O)O)=C[C@@H]1NC(=N)N`, the result_ITMP is -15.8%.

Take `CCN(CC)Cc1ccc(C(=O)N(CCc2ccccc2OC)[C@@H]2CCNC2)cc1`: the result_ITMP came to 29.5%.

Turning to `CNC(=N)NC(=O)Nc1c(C)cccc1C`, the result_ITMP was found to be 2.12%.

Turning to `N#Cc1cnc2c(Cl)cc(NCc3cn(CCN4CCCCCC4)nn3)cc2c1Nc1ccc(F)c(Cl)c1`, the result_ITMP was found to be 2.55%.

For the molecule `Oc1ccc(/C=C/c2cc(O)cc(O)c2)cc1`, the result_ITMP is -2.27%.

For the molecule `CCOC(=O)Nc1ccc(NCc2c(C)cc(C)cc2C)cc1N`, the result_ITMP is 0.41%.

`CCOC(=O)Nc1ccc2c(c1)N(C(=O)CN(C)C)c1ccccc1CC2`: the result_ITMP was -0.84%.

Consider `COc1ccccc1N1CCN(CCCCN2C(=O)c3ccccc3C2=O)CC1`, for which the result_ITMP was -0.85%.

For the molecule `O=C(CCCCCCCC(=O)NCCO)NCCO`, the result_ITMP is 2.9%.

On to `O=C(O)c1cc(O)c2c(Cl)cc(Cl)cc2n1`, for which the result_ITMP is on record as -1.66%.

Turning to `CCOc1cc(OCC)c(C(=O)CCC(=O)O)cc1OCC`, the result_ITMP is given as 4.58%.

For `CC(=O)Oc1c(C)cc(OCC(O)CNC(C)C)c(C)c1C` (stereo not drawn), the result_ITMP is 2.08%.

Take `N#Cc1cc(NC(=O)C(=O)O)c(Cl)c(NC(=O)C(=O)O)c1`: the result_ITMP was determined as 2.08%.

`Nc1c2c(nc3ccccc13)CCCC2O` (racemic): the result_ITMP is reported as -3.81%.

Regarding `O=C(Nc1ccc(Oc2ccc(Cl)cn2)c(Cl)c1)c1ccccn1`, the result_ITMP was -3.45%.

Consider `O=C(/C=C/c1ccc2c(c1)OCO2)N1CCCCC1`, for which the result_ITMP is listed as -6.45%.

In the case of `Cc1cccc(C)c1OCC(C)N` (stereo not drawn), the result_ITMP is reported as 6.94%.

For `Nc1nc(CC(=O)Nc2ccc(CCNC[C@H](O)c3ccccc3)cc2)cs1`, the result_ITMP is recorded as -5.5%.

In the case of `COc1ccccc1OCC(O)CO` (stereo not drawn), the result_ITMP is -2.18%.

For `CC(C)NCC(O)COc1ccc(CC(N)=O)cc1` (stereo not drawn) [R4A_0002533_001 / SPE_K44993696], the result_ITMP is reported as -2.42%.

`Cc1cc(=O)[nH]c(=S)[nH]1`: the result_ITMP is -2.87%.

As for `Cc1ccc(-c2nn(C(C)(C)CNC(=O)c3ncccc3C)c3ncnc(N)c23)cc1`, the result_ITMP came out at 1.04%.

Turning to `CCOc1ccc(Nc2nc(-c3c(C)nc4ccccn34)cs2)cc1`, the result_ITMP was 3.19%.

`Cc1cc(I)ccc1Nc1c(C(=O)NOCC2CC2)cc(F)c(F)c1F`: the result_ITMP is -3.74%.

For the molecule `Cc1c(C)c(NCC(=O)N(C)C2CCN(Cc3ccc(C(N)=O)cc3)CC2)c(C)c(C)c1N`, the result_ITMP is listed as -0.37%.

As for `CN(C)CCN1C(=O)c2cccc3cc(NC(N)=O)cc(c23)C1=O`, the result_ITMP is reported as -1.75%.

Turning to `O=P(O)(O)CP(=O)(O)O`, the result_ITMP was determined as 2.58%.

In the case of `Cc1cccc(C)c1NC(=O)c1ccc(N)cc1`, the result_ITMP was -1.86%.

For the molecule `CC(=O)C1=C(O)[C@]2(C)C(=CC1=O)Oc1c(C(C)=O)c(O)c(C)c(O)c12`, the result_ITMP is listed as -3.21%.

On to `CC(=O)N(C)c1cc(-c2ccnc3c(C(=O)c4cccs4)cnn23)ccc1F`, for which the result_ITMP was -1.48%.

Consider `COc1ccc(C2(C#N)CCC(C(=O)O)CC2)cc1OC1CCCC1` (stereo not drawn), for which the result_ITMP is 0.09%.

`C=C1NCC[C@@H](C(=O)O)N1`: the result_ITMP was 0%.

Regarding `OB1OCc2cc(F)ccc21`, the result_ITMP is -2.38%.

`COc1ccc(CCN(C)CCCN2CCc3cc(OC)c(OC)cc3CC2=O)cc1OC`: the result_ITMP is -1.11%.

With `O=C(OCC(O)CO)c1ccccc1Nc1ccnc2cc(Cl)ccc12` (stereo not drawn), the result_ITMP is -1.62%.

As for `COc1cc(N)c(Cl)cc1C(=O)OCCCN1CCCCC1`, the result_ITMP stood at 0.68%.

Regarding `OC(c1ccc(-c2ccc(CN3CCN(Cc4ccncc4)CC3)cc2)c(F)c1)(C(F)(F)F)C(F)(F)F`, the result_ITMP is given as -1.43%.

Regarding `CO[C@H]1CC=C2CCN3CCC4=C(CC(=O)OC4)[C@]23C1`, the result_ITMP is on record as -0.32%.

Consider `CC(C)(O)CC(=O)[O-]`, for which the result_ITMP was -6.24%.

With `COc1cc2c(N3CCN(C(=O)Nc4ccc(OC(C)C)cc4)CC3)ncnc2cc1OCCCN1CCCCC1`, the result_ITMP is 23%.

Turning to `NC(=O)c1cn(Cc2c(F)cccc2F)nn1`, the result_ITMP is recorded as -3.93%.

For the molecule `Cc1cc(O)c2c(c1)C(=O)c1cccc(O)c1C2=O`, the result_ITMP is listed as -2.68%.

As to `OC[C@H]1O[C@@](CO)(O[C@H]2O[C@H](CO)[C@@H](O)[C@H](O)[C@H]2O)[C@@H](O)[C@@H]1O`, the result_ITMP is -5.71%.

Take `CC[N+](CC)(CC)CCOc1ccc(/C=C/c2ccccc2)cc1`: the result_ITMP was found to be 1.51%.

On to `CC1=C(C(=O)O)N2C(=O)[C@@H](NC(=O)[C@H](N)C3=CCC=CC3)C2SC1` (stereo partly drawn), for which the result_ITMP is -1.02%.

For `Cc1ccccc1C(=O)Nc1ccc(C(=O)N2CCCC(O)c3cc(Cl)ccc32)c(C)c1` (stereo not drawn), the result_ITMP worked out at 1.63%.

As for `COc1ccccc1N1CCN(CCN2C(=O)c3ccccc3C(C)(C)C2=O)CC1`, the result_ITMP came out at 2.7%.

In the case of `Cc1[nH]c(/C=C2\C(=O)Nc3ccc(F)cc32)c(C)c1C(=O)NC[C@H](O)CN1CCOCC1`, the result_ITMP is -7.3%.

Turning to `CC(=O)C1C(=O)C=C(C)OC1=O` (stereo not drawn), the result_ITMP came to 0.74%.

Consider `NC(=O)c1ccc(-c2nc(-c3ccc4c(c3)OCCO4)c(-c3ccccn3)[nH]2)cc1`, for which the result_ITMP was -2.75%.

In the case of `Cc1cccc(C)c1NC(=O)CC12CCCN1CCC2`, the result_ITMP is on record as -2.24%.

For `CC[C@H](C)[C@H](NC(=O)[C@H](Cc1ccc(O)cc1)NC(=O)[C@@H](NC(=O)[C@H](CCCNC(=N)N)NC(=O)[C@@H](N)CC(=O)O)C(C)C)C(=O)N[C@@H](Cc1cnc[nH]1)C(=O)N1CCC[C@H]1C(=O)N[C@@H](Cc1ccccc1)C(=O)O`, the result_ITMP was -2.78%.

As for `O=P([O-])(O)C(O)(Cc1cccnc1)P(=O)(O)O`, the result_ITMP is reported as -2.68%.

`O=C(CN1CCN(C(=O)c2ccco2)CC1)Nc1cc(C(F)(F)F)ccc1Cl`: the result_ITMP was -4.26%.

Turning to `CC(C)c1cc2c(cc1S(=O)(=O)O)[C@@]1(C)CCC[C@@](C)(C(=O)O)[C@@H]1CC2`, the result_ITMP is -4.65%.

In the case of `COc1cc(C[C@@H](CO)[C@H](CO)Cc2ccc(O)c(OC)c2)ccc1O`, the result_ITMP is on record as -7.51%.

Consider `CC[C@H](CC[C@@H](C)[C@H]1CC[C@H]2[C@@H]3CC=C4C[C@@H](O)CC[C@]4(C)[C@H]3CC[C@]12C)C(C)C`, for which the result_ITMP is 1.55%.

Take `N=C(N)NCCSSCCNC(=N)N`: the result_ITMP worked out at 5.22%.

Take `CN(C)C(=O)C(CCN1CCC(O)(c2ccc(Cl)cc2)CC1)(c1ccccc1)c1ccccc1`: the result_ITMP was determined as 67.2%.

Regarding `CC(C(=O)O)c1ccc2c(c1)[nH]c1ccc(Cl)cc12` (stereo not drawn), the result_ITMP is reported as -1.06%.

Take `CCCCc1cc2ccccc2c(OCCN(C)C)n1`: the result_ITMP amounted to 37.6%.

Regarding `NC(=O)c1ccc(F)c2c1C[C@@H](N(C1CCC1)C1CCC1)CO2`, the result_ITMP is -2.33%.

For `CC(C)OC(=O)N[C@H]1Cc2c(n(Cc3ccccn3)c3ccc(C#N)cc23)C1`, the result_ITMP is given as -5.59%.

Take `NC(=O)NCCN1CCN(c2cccc(C(F)(F)F)c2)CC1`: the result_ITMP was 3.97%.

In the case of `Cc1cccc(C)c1NC(=O)C(C)N` (stereo not drawn), the result_ITMP was -5.92%.

Consider `C=CCc1cccc(/C=N/NC(=O)CN2CCN(Cc3ccccc3)CC2)c1O`, for which the result_ITMP is recorded as -0.06%.

For the molecule `O=C1c2c(O)cccc2C([C@@H]2O[C@H](CO)[C@@H](O)[C@H](O)[C@H]2O)c2cc(CO)cc(O)c21` (stereo partly drawn), the result_ITMP was -1.48%.

With `CN1C[C@@H]2CN(c3ccc(-c4ccccc4)nn3)C[C@@H]2C1`, the result_ITMP is -1.43%.

On to `O=C(Nc1cc(Oc2cc(F)c(NC(=O)C3(C(=O)Nc4ccc(F)cc4)CC3)cc2F)ccn1)C1CC1`, for which the result_ITMP is -1.82%.

`Cc1noc2c1-c1ccccc1C(c1ccc(Cl)cc1)=N[C@H]2CC(N)=O`: the result_ITMP is -0.06%.

Take `O=C(Nc1cccc(C(F)(F)F)c1)Nc1cc(S(=O)(=O)NC2CC2)ccc1-c1ccsc1`: the result_ITMP was 12.9%.

With `COC(=O)[C@H](Cc1ccc([N+](=O)[O-])cc1)NC(=O)c1cccc2ccccc12`, the result_ITMP is given as 2.76%.

For the molecule `CCCCCCCCCCCCCCCCCC(=O)OCC(O)[C@H]1OC[C@H](O)[C@H]1O` (stereo partly drawn), the result_ITMP is -4.16%.

The values above are taken from paper PMC13083723 (Patterns, 2026).
